# PubChem BioAssay AID445 (National Center for Advancing Translational Sciences (NCATS), 2006)
# The whole screen tested about 110,000 compounds, of which about 40 (0.04%) were called active. The shares of active, inactive and inconclusive entries below differ from those in the screen. Calls come from the whole dose curve; as a rule, active = well fitted curve in the direction sought with a large enough effect in the signal ratio (not every such curve was filed as active); inconclusive = small, poorly fitted or top-dose-only effect, or a change in a side signal; inactive = flat fitted curve, though single readings scatter; the % refers to the signal ratio. Potencies of inconclusive entries are doubtful fits and often do not repeat.
# Experiment: IkB Signaling;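 for IkBa stabilization activation: 0% = basal untreated cells and 100% = reference inhibitor full response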
# Conditions: ABC-DLBCL IkBa-CBG/CBR dual luciferase ratio (green luciferase fused to IkBa over red control in OCI-Ly3 lymphoma cells), 4 h; IkBa stabilization activation: at 57.1 µM (top of the series), scaled: untreated 0%, proteasome inhibitor 100% unless noted
# Method in brief: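 Luminescence ratio of IκBα-fused green versus native red beetle luciferase in OCI-Ly3 cells, 4 h post-doxycycline with compound; red signal alone, scaled from basal (0%) to zero light (-100%), flagged nonspecific or cytotoxic effects.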
# Potency is the fitted concentration of half-maximal effect.
Structure (SMILES),IkBa stabilization activation,Potency
Cc1ccc(-n2c(=O)c3c(cnn3C)n(CC(=O)Nc3cccc(Cl)c3)c2=O)cc1,inconclusive: -0.0583% [signal inhibitor],–
C[C@@]1(C(=O)O)CCC[C@@H]1C(=O)O,"inactive: 0.0792% [at 11.4 µM, scaled: untreated 0%, proteasome inhibitor 100%]",–
Cc1ccc(CNC(=O)C2CCN(C(=O)N3CC(C)Oc4ccc(Cl)cc43)CC2)cc1 (centres undefined),inconclusive: -0.799% [signal inhibitor],–
CCC(C(=O)NCCc1ccc(OC)c(OC)c1OC)n1nc(C)c2sc3ccccc3c2c1=O (centres undefined),inactive: -2.77%,–
CCOc1ccc(NC(=O)c2ccc3c(=O)n4c(nc3c2)CCCCC4)cc1,inconclusive: -0.122% [signal inhibitor],–
Cc1ccc(C)c(N2CCN(CCCNC(=O)c3cnn(-c4cccc(Cl)c4)c3C3CCN(C(=O)OC(C)(C)C)CC3)CC2)c1,inconclusive: -7.02% [signal inhibitor],–
CC(=O)Oc1c(S(=O)(=O)c2ccccc2)c(C)nn1C(C)(C)C,–,"inconclusive: 0.0126 µM [signal inhibitor, full curve, poor fit]"
COc1cccc(NS(=O)(=O)c2ccc3[nH]cc(C(=O)NC(C)c4ccccc4)c(=O)c3c2)c1 (centres undefined),inconclusive: -4.64% [signal inhibitor],–
Cc1cccc(NC(=O)c2cn(-c3ccccc3)nc2-c2ccccc2)c1C,inconclusive: 4.61% [signal inhibitor],–
Cc1ccccc1CN1CCCN(CC(=O)Nc2ccc(F)cc2)S1(=O)=O,inconclusive: 2.27% [signal inhibitor],–
CCOC(=O)c1c(C)oc2nc(C)nc(NCCc3ccc(Cl)cc3)c12,inconclusive: 5.54% [signal inhibitor],–
CC(C)(C)NC(=O)c1cccc(NC(=O)c2ccc(NC(=O)c3ccco3)cc2)c1,inconclusive: -1.35% [signal inhibitor],–
Cc1cc(N2CCC(C(=O)Nc3ccc(F)cc3F)CC2)n2nc(C)c(-c3ccc(Cl)cc3)c2n1,inactive: -1.31%,–
Cc1ccc(/C=C/C(=O)Nc2ccc3nc(N4CCC(C)CC4)cc(C)c3c2)cc1,inconclusive: 6.85% [signal inhibitor],–
Cn1c(=O)oc2cc(S(=O)(=O)NC(Cc3ccccc3)C(=O)Nc3ccc(F)c(Cl)c3)ccc21 (centres undefined),inconclusive: 2.03% [signal inhibitor],–
c1ccc(-c2noc(CSc3nnnn3-c3ccccc3)n2)cc1,inconclusive: 4.45% [signal inhibitor],–
CC1CCc2c(sc3ncnc(N4CCOCC4)c23)C1 (centres undefined),inconclusive: -1.36% [signal inhibitor],–
CC(OC(=O)c1ccccc1NCc1ccco1)C(=O)Nc1ncc(Cl)cc1Cl (centres undefined),inconclusive: 2.37% [signal inhibitor],–
C=CC(=O)OCCCC,inactive: 1.4%,–
Cc1nn(S(=O)(=O)c2ccc(F)cc2)c(C)c1S(=O)(=O)N1CCCCCC1,inactive: 0.875%,–
COc1cc(-c2cc(OC)c3c(C)oc(C)c3c(=O)c2)ccc1OC(=O)c1cccc(C)c1,inactive: 0.191%,–
Cc1ccc(CNC(=O)c2ccc3c(c2)c(C)c(C)n3Cc2ccc(Cl)cc2)o1,inconclusive: -2.92% [signal inhibitor],–

Structure (SMILES),IkBa stabilization activation,Potency
Cc1ccc(C(=O)Nc2c(C(=O)Nc3ccc(C)c(C)c3)sc3nc(C)cc(C)c23)cc1,inactive: -0.638%,–
CC1(C)Cc2ccccc2-c2nnc(SCC(=O)Nc3nc4ccccc4s3)n21,inactive: 2.71%,–
COc1ccc(CCNC(=O)c2ccc3c(c2)N=C(C)c2ccccc2S3)cc1OC,inconclusive: -0.531% [signal inhibitor],–
CNS(=O)(=O)c1cccc(C(=O)OCC(=O)c2cc(C)n(-c3ccc4c(c3)OCO4)c2C)c1,inconclusive: 2.4% [signal inhibitor],–
CCN(CC)CCCNC(=O)c1ccc2c(c1)sc1nc(-c3ccc(C)cc3)cn12,inactive: 0.788%,–
CCOc1c(Cl)cc(CNc2ccc3[nH]c(=O)[nH]c3c2)cc1OC,inactive: 3.2%,–
COc1ccc(NC(=O)NC(C)c2c(-n3cccc3)sc(C)c2C)cc1OC (centres undefined),inconclusive: 1.71% [signal inhibitor],–
CCN(C)c1ccc(/C=N\n2nnnc2N)cc1,inactive: -2.02%,–
CCCCOc1ccc(C(=O)Nc2cc(-c3cn4cccnc4n3)ccc2OC)cc1,inactive: -1.49%,–
CCOc1cccc2sc(NC(=O)c3ccc(S(=O)(=O)N4CCCCC4C)cc3)nc12 (centres undefined),inconclusive: 4.77% [signal inhibitor],–
CCOC(=O)c1c(C)[nH]c(C)c1S(=O)(=O)N1CCN(c2cc(Cl)ccc2C)CC1,inconclusive: -3.12% [signal inhibitor],–
Cc1nnc(NC(=O)c2nc(SC(C)C)ncc2Cl)s1,inconclusive: 2.92% [signal inhibitor],–
CCc1cccc(NC(=O)c2ccc3c(c2)N(Cc2cccc(Cl)c2)C(=O)c2ccccc2S3=O)c1 (centres undefined),inconclusive: 2.88% [signal inhibitor],–
Nc1nc(Nc2cccc(F)c2)nc2ccccc12,inactive: -0.00667%,–
Cc1ccc(-c2cc(C(=O)NCc3ccc4c(c3)OCO4)[nH]n2)c(O)c1C,–,"inconclusive: 31.6 µM [rising, partial curve]"
CC(=O)NCCOc1ccc(C(=O)O)cc1,inconclusive: 3.36% [signal inhibitor],–
CC(C)(C)n1nnnc1C(c1ccccc1F)N(Cc1ccco1)CC1CCCO1 (centres undefined),inconclusive: 4.26% [signal inhibitor],–
CC(C)C(=O)Nc1cccc2nsnc12,inconclusive: 1.31% [signal inhibitor],–
Cc1cccc(N2CCN(C(=O)CCS(=O)(=O)c3ccc4c(c3)CC(=O)N4C)CC2C)c1 (centres undefined),inconclusive: -0.664% [signal inhibitor],–
COC(=O)Nc1nc2ccc(SC(C)C)cc2[nH]1,"inconclusive: 10.7% [signal activator] [at 25.6 µM, scaled: untreated 0%, proteasome inhibitor 100%]",–
CCC(C)(C)n1nnnc1C(c1ccncc1)N1CCN(c2cccc(OC)c2)CC1 (centres undefined),inactive: -0.691%,–
Cc1cccc(C(c2sc3nc(-c4ccco4)nn3c2O)N2CCOCC2)c1 (centres undefined),inactive: -0.704%,–
